Tests used:
[1] = target: T1, human P-cadherin expressing NCI-H1650 cells (Homo sapiens, UniProt P22223); assay: Target binding (FACS) on NCI-H1650 cells
T1 construct: endogenous in cells; host or cells: NCI-H1650
Experimental: Binding of the ADCs to P-cadherin expressed on HCT-116 cells was determined by flow cytometry analysis using the same procedure as described above. In brief, HCT-116 or NCI-H1650 cells were harvested with Versene (Invitrogen, #15040066) and diluted to 1×10^6 cells/ml in 1% BSA (Bovogen, #BSAS)/1×PBS (Ca+/Mg+) (Gibco, #14040-117). 1×10^5 cells/well (100 μL) were added to each well of a 96-well U-plate (Corning, #3799) and centrifuged at 1500 rpm (Eppendorf, #5810R) for 5 minutes before removing the supernatant. Antibodies serially diluted in 1% BSA/1×PBS (Ca+/Mg+) were added at 100 μL/well to the pelleted cells and incubated at 4° C. for 1 hour. A non-related hlgG1 antibody was used as an isotype control. Cells were washed two times with 180 μL/well of 1% BSA/1×PBS (Ca+/Mg+) by centrifugation at 1500 rpm for 5 minutes at 4° C. […] After the final wash, cells were resuspended in 100 μL 1% BSA/1×PBS (Ca+/Mg+) and fluorescence values were measured with a FACS Canto II cytometer (BD Biosciences). The amount of cell surface bound anti-P-Cadherin antibody was assessed by measuring the mean fluorescence (MFI). The FACS raw data were analyzed by FlowJo software, wells containing no antibody or secondary antibody only were used to establish background fluorescence.

NCI-H1650 cells [2] = assay: Cytotoxicity assay of ADC (Cell Titer Glo) on NCI-H1650; format: cell-based, human; conditions: NCI-H1650, 5 days
NCI-H1650 cells [3] = assay: Antibody mediated internalization assay (HCS) on NCI-H1650; format: cell-based, human
Experimental: Operetta CLS (PerkinElmer) is a high content imaging and analysis system that can collect and analyze images of samples with high speed and sensitivity. One day before the assay day, Poly-D-Lysine (PDL) was diluted to 8 μg/mL in DPBS (Hyclone, #SH30028.03) and added 100 μL/well into 96-well clear bottom black plates (Greinier, #655090). The PDL-coated plates were then incubated at 37° C. for 1 hour before discarding the supernatant. HCC-1954 (ATCC, CRL-2338) cells or NCI-H1650 (ATCC, CRL-5883) cells were plated at 18000 cells per well into the PDL-coated plates in 100 μL RPMI1640 complete medium (Gibco, #22400-089) containing 10% FBS (Hyclone, #SH30084.03). On Day 1, supernatants in the plates were discarded and antibodies serially diluted in 1% BSA/1×PBS (Ca+/Mg+) were added at 100 µL/well and incubated at 4° C. for 2 hours. A non-related hlgG1 antibody was used as an isotype control. […]
Images were collected and analyzed by operetta CLS (PerkinElmer). The amount of internalized anti-P-cadherin antibody was assessed by measuring the mean fluorescence (MFI) per cell, wells containing no antibody or secondary antibody only were used to establish background fluorescence. […]

293F = assay: Non-specific binding (FACS) on 293F; parameters: species or system human; conditions: 10 μg/mL
Experimental: (§1) Human cell lines were seeded in 96-well plates (BD) at a density of 1×10^5 cells/well. 10 μg/mL antibody samples were added to cells and incubated for 1 h at 4° C. After washing, the cells were resuspended and incubated with PE-conjugated goat anti-human IgG Fc antibody (Jackson) for 30 min. After washing and resuspending, mean fluorescence intensity (MFI) was measured by flow cytometry (BD Canto II) and analyzed by FlowJo.

BT474 = assay: Non-specific binding (FACS) on BT474; parameters: species or system human; conditions: BT474, 10 μg/mL
Experimental: as §1

NCI-H1650 lung tumor = assay: Xenografted NCI-H1650 lung tumor model; format: in vivo, SCID-17B female mice; conditions: single dose; for TGI (%) at Day 31: vs PBS
Experimental: WBP3195-p1-ADC in efficacy study was tested in NCI-H1650 lung tumor model in SCID-17B female mice. Female SCID-17B mice (Shanghai Jihui Laboratory Animal Care Co., Ltd.) of 7-9 week-old were used in the study. NCI-H1650 cells were maintained in vitro as a monolayer culture in RIPM1640 medium supplemented with 10% fetal bovine serum, 100 U/mL penicillin and 100 μg/mL streptomycin at 37° C. in an atmosphere of 5% CO2 in air. The tumor cells were routinely sub-cultured twice a week with 0.25% trypsin-EDTA treatment. The cells growing in an exponential growth phase were harvested and counted for tumor inoculation.
For the therapeutic model, each mouse was inoculated subcutaneously at the right front flank with NCI-H1650 tumor cells (0.5×10^7 cells resuspended in 100 ul PBS). When the average tumor volume reached approximately to 137 mm^3 at day22 post inoculation, animals were randomly grouped into 4 groups and each group contained 6 mice. […] The day of intravenous injection was considered as day 0. For all tumor studies, mice were weighed and tumor growth was measured twice a week using calipers.
All the procedures related to animal handling, care and the treatment in the study were performed according to the guidelines approved by the Institutional Animal Care and Use Committee (IACUC) of Shanghai SIPPR-BK Laboratory Animal Co., Ltd following the guidance of the Association for Assessment and Accreditation of Laboratory Animal Care (AAALAC).

T1 sequence (P22223 108-829): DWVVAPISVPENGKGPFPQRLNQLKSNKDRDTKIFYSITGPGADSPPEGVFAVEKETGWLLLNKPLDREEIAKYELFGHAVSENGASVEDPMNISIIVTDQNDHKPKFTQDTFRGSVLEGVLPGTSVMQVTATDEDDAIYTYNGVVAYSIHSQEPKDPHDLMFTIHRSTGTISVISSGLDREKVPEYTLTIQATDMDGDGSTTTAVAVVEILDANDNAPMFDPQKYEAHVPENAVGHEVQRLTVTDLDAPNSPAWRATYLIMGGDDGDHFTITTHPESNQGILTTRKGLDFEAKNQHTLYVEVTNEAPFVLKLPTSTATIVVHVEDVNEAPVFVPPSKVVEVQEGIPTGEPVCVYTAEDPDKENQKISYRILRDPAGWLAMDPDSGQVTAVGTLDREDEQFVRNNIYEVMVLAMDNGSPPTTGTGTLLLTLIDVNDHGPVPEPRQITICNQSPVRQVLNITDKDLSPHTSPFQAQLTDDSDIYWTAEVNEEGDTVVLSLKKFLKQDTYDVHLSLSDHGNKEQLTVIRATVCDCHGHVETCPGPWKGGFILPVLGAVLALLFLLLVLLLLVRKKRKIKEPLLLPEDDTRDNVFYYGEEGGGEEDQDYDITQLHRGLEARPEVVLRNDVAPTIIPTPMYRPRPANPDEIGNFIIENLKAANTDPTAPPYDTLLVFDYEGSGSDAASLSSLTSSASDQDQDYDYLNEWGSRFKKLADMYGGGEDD

B1: W3195-1.53.1-p1-uIgG1L-MMAE (conjugate)
heavy: QVQLQESGPGLVKPSETLSLTCTVSGGSVISDNYYWTWVRQPPGKGLEFIGYIYYRGSTNYNPSLKNRVIISIDTSRNQFSLDLNSVTAADTAVYYCARDRRTGNSLPFDNWGQGTLVTVSSASTKGPSVFPLAPSSKSTSGGTAALGCLVKDYFPEPVTVSWNSGALTSGVHTFPAVLQSSGLYSLSSVVTVPSSSLGTQTYICNVNHKPSNTKVDKRV[human IgG1 Fc not written out]
light: SYELTQPPSVSVSPGQTAQITCSGDKLGDKFASWYQQKSGQSPVVVIYQDNKRPSGFPERFSGSNSGNTATLTISGTQAMDEADYYCQAWDSSIVVFGGGTKLTVLGQPKAAPSVTLFPPSSEELQANKATLVCLISDFYPGAVTVAWKADSSPVKAGVETTTPSKQSNNKYAASSYLSLTPEQWKSHRSYSCQVTHEGSTVEKTVAPTECS
[1]
  Max MFI, FACS binding: 3005
NCI-H1650 cells [2]
  Max Inh %: 80%
NCI-H1650 cells [3]
  Top MFI, internalization in HCS assay: 94928
293F
  MFI, non-specific binding: 35.1
BT474
  MFI, non-specific binding: 34.6
NCI-H1650 lung tumor; 2.5 mg/kg, intravenous
  mean tumor volume, 31 days post treatment: 1124.80 ± 132.22 mm3
  TGI (%) at Day 31: 38.69%
NCI-H1650 lung tumor; 2.5 mg/kg
  Tumor free (TV <20 mm^3) at Day 31, n/total: 0/6
NCI-H1650 lung tumor; 5 mg/kg, intravenous
  average tumor volume, 31 days post treatment: 9.92 ± 3.20 mm3
  TGI (%) at Day 31: 107.99%
NCI-H1650 lung tumor; 5 mg/kg
  Tumor free (TV <20 mm^3) at Day 31, n/total: 5/6
  tumor free animals observed: One tumor free animal

From patent US20240239885A1, “ANTIBODY CONJUGATE COMPRISING ANTI-P-CADHERIN ANTIBODY AND USES THEREOF” (WUXI BIOLOGICS IRELAND LIMITED, priority 2021, published 2024)
